Measured values reported in PubChem BioAssay (NCI).
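Exposure lasted 48 hours, with cells grown in 96-well plates and compounds tested at five concentrations. The concentration for 50% growth inhibition is given as GI50.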 Some entries of the source have several records that differ or are many. Only these are listed. The source may hold further records. For part of these data: A record mostly stands for its own series of concentrations, not given here; a value can be the end of its range. A tag in brackets gives the origin of a value. Letters count within one entry. For part of these data: Results that share an entry are repeated measurements across runs, samples, wells, individuals or studies.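 TGI: concentration producing complete growth inhibition.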

Experiments:
Experiment in all cases: DTP human tumour cell line panel, 48 h
BT-549 breast = tested on: BT-549 breast
DU-145 prostate = tested on: DU-145 prostate
EKVX NSCLC = tested on: EKVX NSCLC
HCC-2998 colon = tested on: HCC-2998 colon
OVCAR-4 ovarian = tested on: OVCAR-4 ovarian
SF-539 CNS = tested on: SF-539 CNS
T-47D breast = tested on: T-47D breast
TK-10 renal = tested on: TK-10 renal
NCI-H23 lung = tested on: NCI-H23 lung
SN12C renal = tested on: SN12C renal
SK-MEL-28 melanoma = tested on: SK-MEL-28 melanoma
SNB-75 CNS = tested on: SNB-75 CNS
SR leukemia = tested on: SR leukemia

Compound	TGI (BT-549 breast)	TGI (DU-145 prostate)	GI50 (EKVX NSCLC)	TGI (HCC-2998 colon)	GI50 (OVCAR-4 ovarian)	TGI (SF-539 CNS)	GI50 (T-47D breast)	GI50 (TK-10 renal)	TGI (NCI-H23 lung)	TGI (SN12C renal)	GI50 (SK-MEL-28 melanoma)	TGI (SNB-75 CNS)	GI50 (SR leukemia)
O=C(Cc1ccc(-c2ccc(OCCN3CCOCC3)cc2)cn1)NCc1ccccc1	> 42.6 µM [sample A, mean of 2 tests] and 1.85 µM [sample B, 1 test]	183 nM [sample A, mean of 2 tests] and > 3.06 µM [sample B, mean of 2 tests]	8.3 µM [sample A, mean of 2 tests] and 57.9 nM [sample B, mean of 2 tests]	> 100 µM [sample A, 1 test] and 1.95 µM [sample B, mean of 2 tests]	96.2 nM [sample A, mean of 2 tests] and 1.41 µM [sample B, mean of 2 tests]	26.3 µM [sample A, 1 test] and 132 nM [sample B, mean of 2 tests]	10.3 µM [sample A, 1 test] and 42.8 nM [sample B, 1 test]	935 nM [sample A, mean of 2 tests] and 61 nM [sample B, 1 test]					
CC[C@H](C)C(=O)O[C@H]1C[C@@H](C)C=C2C=C[C@H](C)[C@H](CC[C@@H]3C[C@@H](O)CC(=O)O3)[C@H]21									7.68 µM [sample A] and > 100 µM [sample B] and > 49.4 µM [sample C]	9.69 µM [sample A] and > 100 µM [sample B] and 18.7 µM [sample C]			
O=c1[nH]c(=O)n(C2CC(O)C(CO)O2)cc1F (stereo not given)				27.7 µM [sample A, mean of 2 tests] and 5.4 µM [sample A, mean of 3 tests] and 78.2 µM [sample A, mean of 69 tests] and > 100 µM [sample B, mean of 5 tests]		259 nM [sample A, mean of 3 tests] and 3.88 µM [sample A, mean of 97 tests] and > 100 µM [sample B, mean of 5 tests]					5.74 µM [sample A, 1 test] and 3.11 µM [sample A, mean of 111 tests] and 2.17 µM [sample A, mean of 4 tests] and > 85.1 µM [sample B, mean of 5 tests]	> 2.5 mM [sample A, 1 test] and 214 µM [sample A, mean of 105 tests] and > 100 µM [sample B, mean of 4 tests]	13.7 nM [sample A, mean of 3 tests] and 379 nM [sample A, mean of 59 tests] and > 59.8 µM [sample B, mean of 3 tests]
